PubChem BioAssay AID1347428 (National Center for Advancing Translational Sciences (NCATS), 2020)
About 290 (0.32%) of roughly 91,000 compounds were called active. The inconclusive results got no clear call from the source; some entries with a clear call stand among them for comparison. Calls follow the shape of the dose curve; as a rule, active = well fitted inhibition curve with a large enough effect; inconclusive = small, poorly fitted or top-dose-only effect; inactive = no such curve, though single readings can be large or run the other way. Potencies of inconclusive entries are doubtful fits and often do not repeat.

target: Single-stranded DNA cytosine deaminase (Homo sapiens) (UniProt Q9GZX7); assay: Primary qHTS assay for inhibitors of Activation Induced Cytidine Deaminase (AID): AID signal; conditions: AID deamination FRET fluorescence, UDG-coupled, 4 h; series mostly up to 115 µM; also: nearly all actives have a fitted effect of over 25% in size
Potency is read from the fitted curve at half-maximal effect; tags tell the direction and shape of the fitted curve.

Chain of UniProt Q9GZX7 (Q9GZX7 whole entry, looked up): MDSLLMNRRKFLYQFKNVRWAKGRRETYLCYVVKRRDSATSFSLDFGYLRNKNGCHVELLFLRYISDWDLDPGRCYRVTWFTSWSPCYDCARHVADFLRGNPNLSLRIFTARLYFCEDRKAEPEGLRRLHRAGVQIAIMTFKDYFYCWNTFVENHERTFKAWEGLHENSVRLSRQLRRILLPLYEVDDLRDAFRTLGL

| SMILES | Potency |
| --- | --- |
| COc1cccc(NC(=O)c2sc3nc(C)c(C(=O)Nc4ccc(C)cc4C)c(-c4ccccc4Cl)c3c2N)c1 | inconclusive: 31.6 µM [inhibitor, partial curve, poor fit] |
| CC(=O)c1ccc(-c2cccc(Cl)c2Cl)o1 | inactive |
| COc1cccc(CN2CCc3nc(Nc4ccc5c(c4)OCCO5)ncc3C2)c1 | inconclusive: 70.8 µM [inhibitor, partial curve, poor fit] |
| COc1ccc(C2=NC3(CCCCC3)N(CC(=O)Nc3ccc(C(C)C)cc3)C2=O)cc1 | inconclusive: 17.8 µM [inhibitor, full curve, poor fit] |
| COc1ccc(-c2cc(C(=O)Oc3ccccc3)c3cc(C)ccc3n2)cc1 | inconclusive: 79.4 µM [inhibitor, partial curve, poor fit] |
| CCCN(CCC)CCCNC(=O)Cn1cnc2sc(C)c(S(=O)(=O)N3CCCCC3)c2c1=O | inconclusive: 100 µM [inhibitor, single point] |
| CCCCCCC/C=C\CCCCCCCCC(=O)O | inconclusive: 79.4 µM [inhibitor, single point] |
| Cn1c(=O)c2c(-c3ccccc3)n3c(c2n(C)c1=O)C(c1ccccc1[N+](=O)[O-])Nc1ccccc1-3 (stereo not given) | inconclusive: 15.8 µM [inhibitor, full curve, poor fit] |
| CCc1c(C)sc2c1CCN(C(=O)Nc1cc(OC)c(OC)c(OC)c1)C2c1ccccc1 (stereo not given) | inconclusive: 25.1 µM [inhibitor, full curve] |
| COc1ccc(-c2nc3c(c(SCC(=O)Nc4ccc(C(=O)O)cc4)n2)Cc2ccccc2O3)cc1 | inconclusive: 100 µM [inhibitor, partial curve, poor fit] |
| Cc1cc(C(=O)O)ccc1-c1ccc(C=C(C#N)C#N)o1 | inconclusive: 44.7 µM [inhibitor, partial curve, poor fit] |
| O=C(c1noc2c1CCCCC2)N1CCN(c2ccc(Cl)cc2)CC1 | inconclusive: 79.4 µM [inhibitor, partial curve, poor fit] |
| N#CC1=C(N)OC(c2ccccc2)=C(C(=O)c2ccccc2)C1c1ccccc1 (stereo not given) | inactive |
| CC(=O)c1cccc(NS(=O)(=O)c2ccc3[nH]c4c(c3c2)CCCCCC4)c1 | inactive |
| Cc1ccsc1/C=C1\Oc2cc(OC(=O)c3ccco3)ccc2C1=O | inconclusive: 50.1 µM [inhibitor, partial curve, poor fit] |
| CCOc1ccc(-n2c(-c3ccc(C)cc3)nc3c(cnn3-c3ccccc3)c2=O)cc1 | inconclusive: 39.8 µM [inhibitor, single point] |
| Cc1nc2nc(NC(=O)c3cccc(Cl)c3)[nH]n2c(=O)c1Cc1ccccc1 | inconclusive: 56.2 µM [inhibitor, partial curve, poor fit] |
| CCCCOc1ccc(CNC(=O)CN2CCSc3ccccc32)cc1 | inconclusive: 7.94 µM [inhibitor, full curve, poor fit] |
| Cn1c(=O)c2c(-c3ccc(Br)cc3)n(CCc3ccccc3)cc2n(C)c1=O | active: 39.8 µM |
| COc1ccc(Br)cc1/C=C(\C#N)c1nc2ccccc2[nH]1 | inactive |

| SMILES | Potency |
| --- | --- |
| Cc1ccccc1C(=O)Nc1nc2nc(-c3ccccc3)cc(=O)n2[nH]1 | inconclusive: 35.5 µM [inhibitor, partial curve, poor fit] |
| COc1cccc(CNC(=O)c2oc3c(c2C)-c2nn(Cc4cccc(Cl)c4)cc2CC3)c1 | inconclusive: 100 µM [inhibitor, single point] |
| O=C(Nc1ccc(Cl)cc1)c1ccc2c(Cl)c3c(nc2c1)CCCC3 | inactive |
| COc1ccc(C(=O)N2CCC(C(=O)N(C)Cc3ccc(C)cc3C)CC2)c2ccccc12 | inconclusive: 100 µM [inhibitor, partial curve, poor fit] |
| O=C(O)C/C(=C/c1cccs1)c1nc2ccccc2s1 | inactive |
| CCOc1cc(C2CC(=O)Nc3cc4c(cc32)OCCO4)ccc1O (stereo not given) | inconclusive: 89.1 µM [inhibitor, single point] |
| COc1cccc(C(=O)N(Cc2cccnc2)c2nc3c(OC)ccc(C)c3s2)c1OC | inconclusive: 79.4 µM [inhibitor, partial curve, poor fit] |
| CCn1c(SCC(=O)c2ccc(Cl)cc2Cl)nnc1-c1cnccn1 | inactive |
| O=C(O)c1ccc2nc(-c3ccc(-c4ccccc4)cc3)c(-c3ccc(-c4ccccc4)cc3)nc2c1 | inconclusive: 56.2 µM [inhibitor, partial curve, poor fit] |
| Cc1ccc(S(=O)(=O)NCCc2csc(-c3ccc(Cl)cc3)n2)cc1 | inconclusive: 70.8 µM [inhibitor, single point] |
| Cn1ncc2c(NCc3ccccc3Cl)nc(NCCO)nc21 | inactive |
| CCc1ccc(OCC(=O)N(Cc2ccco2)Cc2ccccc2Cl)cc1 | inconclusive: 50.1 µM [inhibitor, partial curve, poor fit] |
| COc1ccc2c(Sc3ccc(Cl)cc3)c(C(=O)N3CCCCC3)[nH]c2c1 | inconclusive: 14.1 µM [inhibitor, full curve] |
| CCCCCCC1CCC(C(=O)NC(C(=O)O)C(C)C)CC1 (stereo not given) | inconclusive: 89.1 µM [inhibitor, single point] |
| CC(C)(C)c1ccc(-c2nnc(-c3ccccc3NC(=O)c3ccc(F)cc3F)o2)cc1 | inconclusive: 63.1 µM [inhibitor, partial curve, poor fit] |
| COc1ccc2ccc(OCC(=O)NC3CCCC3)cc2c1 | inactive |
| COc1ccc(OC)c(NC(=O)COCc2cc(-c3ccc(F)cc3)on2)c1 | inconclusive: 25.1 µM [inhibitor, full curve, poor fit] |
| COc1cc2c(cc1NC(=O)C(C)Oc1ccccc1)oc1ccccc12 (stereo not given) | inconclusive: 56.2 µM [inhibitor, partial curve, poor fit] |
| Cc1cc(C)c2c(N)c(C(=O)Nc3ccccc3C(F)(F)F)sc2n1 | inactive |
| CCn1cc2nc(SCc3cccc(C(F)(F)F)c3)n(Cc3ccc(C)cc3)c(=O)c2n1 | inconclusive: 25.1 µM [inhibitor, full curve] |
